# In the supplement of paper PMC11417369:
# ± gives the standard deviation of the averaged measurements. The list shows a part of the results.
# Tested on: PfAP2-EXP AP2 domain (GST-tagged)
# Assay: gcPBM binding intensity (ln(normalized median fluorescence intensity)); higher = stronger DNA binding
# Procedure, shortened: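 Binding of GST-tagged P. falciparum DNA-binding domains, expressed in E. coli and used at about 25 μg on average, was carried out for 1 h in 1× PBS containing 1% milk, 0.2 mg/ml BSA, 0.5% salmon testes DNA and 0.03% Triton X-100. The target was an Agilent 4 × 180k array of primer-extended double-stranded 36-bp intergenic genomic probes plus negative controls, read with Alexa488 anti-GST antibody at 488 nm. Binding intensity is the highest Masliner-normalised natural-log median intensity across replicate spots of either probe orientation.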
row,Sequence,gcPBM binding intensity (ln)
1,TTTTTATTCAACAAAAATATCAAACATAATTATAAA [CACACA_negctrl_site616],8.67 ± 0.45
2,ATATACAACTAAAGAACACACATCATTGTTCATTGG [CACACA_site3681],8.4 ± 0.44
3,TTCCTTTAACCCTGCACACATACATACATTTATATG [CACACA_site3953],9.08 ± 0.45
4,ATTTTTATGTCTTTCTATAAATCGAAAATATACATA [CACACA_negctrl_site477],8.2 ± 0.17
5,TAAAATAGAAATATATGTACATATATATATGTATAT [XGTACX_site4134],8.39 ± 0.35
6,ATTTATATTTTTTAATGTACATTTATATGTATACAA [XGTACX_site4555],8.78 ± 0.41
7,CGATATTCTAAGGATAGTACATAATAAAATAGAGTA [XGTACX_site4224],8.6 ± 0.44
8,AAAAAAAAATATATATATATATATATATAATAAAAA [CACACA_negctrl_site639],8.51 ± 0.27
9,ATTCTACACGCACATACACACATATAAATATAAATA [CACACA_site7582],9.02 ± 0.28
10,ATTTATGTTATTGTATGTACACAATATAATGTTATT [XGTACX_site5657],8.56 ± 0.32
11,ATATTTTACATATTTGCACACATATATTTAAATACA [CACACA_site4628],8.79 ± 0.21
12,ATAATATATATGAAATGTACATAAATTTAATGCGAC [XGTACX_site5394],9.31 ± 0.42
13,ACACAAAAATAGTTTTTTATATTGTTAACCTTATAT [XGTACX_negctrl_site123],8.51 ± 0.47
14,AAAAAAAAAAAATGTGCACACGCGTACAGACAAAAA [CACACA_site2005],9.11 ± 0.48
15,TAAAAAGTACATTATTCATGGCCTATTACATTTTTT [GTGCAC_negctrl_site282],8.7 ± 0.33
16,ATGTGCACATGTAGAAGTACTTTTTCTTAAAATACT [XGTACX_site8341],8.68 ± 0.16
17,TATGTTTTATATAAGATGCACTTTTGTTATGCTTCA,8.67 ± 0.41
18,CAAATACACGGACACACACACACAAAAAAAAAAAAA [CACACA_site6385],8.38 ± 0.44
19,AAATTATTGTAAAATAGTACAGTGAAACATAAAGTT [XGTACX_site589],8.78 ± 0.47
20,TTTATTTTGTTTTCTTGTACATAAATAATTACATAT [XGTACX_site4227],8.86 ± 0.35
21,TTTATTTGGACATATACACACTTAAATATGTTTATT [CACACA_site6021],8.4 ± 0.31
22,TAAATACAAGTAAAAAGTACAGAAAAATTATATATA [XGTACX_site1758],8.65 ± 0.38

row,Sequence,gcPBM binding intensity (ln)
1,TATAATAATTCATAATGTACTTTTATCAAAAAAGTA [XGTACX_site6868],8.15 ± 0.34
2,TGATTCACTATAGTAGTGCATATTATATATATATAT [GTGCAC_site9975],9.88 ± 0.32
3,TATAAAAAATTCAATACACACCATATATAAATATAT [CACACA_site6060],8.38 ± 0.28
4,AAGAGAAATGGGCACACACACACATATTATAGATAT [CACACA_site6828],8.78 ± 0.49
5,ATTCATTTTATTTTTTCACACACACCGATATATATA [CACACA_site9097],8.89 ± 0.43
6,ATTTTTCAATTATGTAGTACATTGATATTTTCATTT [XGTACX_site5369],8.47 ± 0.31
7,ACCCCCATATTCTTTTTACACACTTGAATAAAAAAT [CACACA_site8319],9.62 ± 0.49
8,ATAAATATGGAGCACACACACATAAACATACATATA [CACACA_site421],8.84 ± 0.67
9,TGTGTTCATATATGCACACGCATATATATTATTGTT [CACACA_site3822],8.63 ± 0.23
10,TGTGTCCATTGAACAGTGCAATAAAAACTTTTACAT,8.78 ± 0.17
11,TTTATATTTATATTGGGTACATAAAAAGCTTGAAAT [XGTACX_site8248],8.54 ± 0.34
12,ATTTTTATTCTTATTACACACCTAAATATAAAATAT [CACACA_site2064],8.72 ± 0.38
13,AAAGGGGAAAATATTATACATATAATAAATCCGTAT [XGTACX_negctrl_site355],8.47 ± 0.38
14,AAAAAAAAAAAACACACACACACACCGATACATACA [CACACA_site8849],8.56 ± 0.57
15,TTTTTTTTTTTGTGGTGTACCTTTATTTCCTTTTAG [XGTACX_site6934],8.57 ± 0.49
16,AGTAATAAAAGTAGAAGTACAATACTTCAAAGATAT [XGTACX_site8562],8.73 ± 0.37
17,TATTTCAAAATATGGGTGCAGTTCTTCATGATATAT [GTGCAC_site9658],8.66 ± 0.085
18,GTTCTAAAAGTTAATGCATGTTATAAGTTTCCCTCT [TGCATGCA_site94],8.81 ± 0.55
19,TGCTATTTTTTCCTTTTTTTGTATCACAATCATATA [CACACA_negctrl_site1576],8.64 ± 0.45
20,TTATACTTTGGGTGGTGTACTATATTATGCTTATAA [XGTACX_site1106],9.16 ± 0.55
21,ATGTATATATTTACGTGTACATATTCATGTGATATC [XGTACX_site5871],8.6 ± 0.35
22,ATTAAACATAAATATGCACACATATACATATATTCA [CACACA_site8850],8.34 ± 0.26

row,Sequence,gcPBM binding intensity (ln)
1,TATCTTTTTACAATAGTGCATATGTTATCATTAATA [GTGCAC_site9489],8.75 ± 0.28
2,TTTATTTATTAATACACACACACACCCAGACAAAAT [CACACA_site4292],9.28 ± 0.59
3,ATTTGCCCATTTAATTAACACACAAATGTTTATATT [CACACA_site8145],8.81 ± 0.48
4,AGATATATAAATATTACACACTATATATCTATTTAT [CACACA_site6466],8.49 ± 0.39
5,ACTATTTAATATAGGGTGCAACTTTTTCAAGTAAAT [GTGCAC_site9853],9.06 ± 0.15
6,TTTCTTTTTTGATGCGTGCACATTTGTTTATTTTTC [GTGCAC_site9792],9.03 ± 0.3
7,ATTATATACATTTTAGTGCATTACATAATAATATAA [GTGCAC_site9836],8.84 ± 0.18
8,GTATGCATTATATACACACATACATTTATATATTCT [CACACA_site115],8.73 ± 0.29
9,TTTATTTATTATTGTTGTACACTTTTTATAAAAAAA [XGTACX_site5114],8.71 ± 0.33
10,ATGTATATAATATTATGTACATATATGAAATATTTT [XGTACX_site8168],8.57 ± 0.28
11,TGTTCTTATTTTATAAGCATATAATTAATCATAATG [CACACA_negctrl_site1493],8.2 ± 0.35
12,ATAAGAAAAGGACACACACACAAAAAAAAAAAAAAA [CACACA_site7351],8.31 ± 0.57
13,TAGTTTTTTATAAAATTATTTATATAAAGGTAAAAA [CACACA_negctrl_site490],8.45 ± 0.54
14,AATATATTATAATATACACACATATATGCTCTTTAA [CACACA_site4131],8.57 ± 0.46
15,ATTTAAAAGAAATAATGTACGAATCATATTTGATAT [XGTACX_site1785],8.4 ± 0.4
16,ATATATTATATATATTTTAAGTAATTTGCAAAAAAT [GTGCAC_negctrl_site361],8.37 ± 0.5
17,ATAGTATCTGGTAGCTGTACGAGTCGTAGAGTGCAG [XGTACX_site2020],8.87 ± 0.35
18,ATTTATTAACCATATACACACATATATTTGTATTTA [CACACA_site6744],8.68 ± 0.4
19,TTCCCTAATATTTGTTGTACTTGTTATATTTTTTTT [XGTACX_site5994],9.02 ± 0.4
20,TATATTTGTAAGAAGAGTACTAAAAAAAGAATAAAG [XGTACX_site8704],8.99 ± 0.38
21,ATATATATATATATATGTACGTACTCAGTTATGCCT [XGTACX_site453],10.1 ± 0.38
22,ATACATATATATATATGTACATATGCACATATATAC [XGTACX_site7209],8.62 ± 0.092

row,Sequence,gcPBM binding intensity (ln)
1,AACAATGTTTTCTTGTGTACACATCATTAAAGAAAA [XGTACX_site4726],8.68 ± 0.27
2,TTCTATATAATTCAAACATGCACAGGAAATATTATA [TGCATGCA_site290],9.11 ± 0.43
3,ATAATATATATATATACGCACACTTATGTACGGATT [CACACA_site2120],8.53 ± 0.25
4,AAGAAAAAAGGGGACAAGGCATATCTATATATACAT [TGCATGCA_negctrl_site172],8.71 ± 0.38
5,TATGTAACACATACTTGTACATATATAATTTTTTTA [XGTACX_site6251],8.14 ± 0.34
6,ATATATATATCACGCACACACGAATTTTAAATATAT [CACACA_site5691],9.4 ± 0.11
7,TTATTTTTACAATTTTAATAATAATACTAAAACAAA [XGTACX_negctrl_site538],8.11 ± 0.41
8,TATTGTATGGTAGGATATGATGTTATTTGTTATAAT [CACACA_negctrl_site202],8.38 ± 0.4
9,TCTTTTGCCCAAAAAGGTACACACCACAATTTAAAT [XGTACX_site1482],8.92 ± 0.58
10,TGCATAATTAAAAATGGTACACTGTATTTATAATAT [XGTACX_site1575],8.51 ± 0.3
11,TATAAATTAAGATAACGTACATATAATAATATAAAC [XGTACX_site487],8.76 ± 0.42
12,TGTACACCCAGAAATGCACACACATATATATATATA [CACACA_site8716],10.1 ± 0.33
13,TGTACAGTATATACAACACACATTTGTATAAATATA [CACACA_site1002],8.59 ± 0.47
14,AATAGAGTTGAATGCACACATACAAATTTTTAGTTT [CACACA_site3564],8.24 ± 0.19
15,TATATATATTTTATGTGTACTCAATGTTATAACGCA [XGTACX_site8360],8.73 ± 0.27
16,TTATATATGACTAACGGTTTTTTTTTTTTTTTTTTT [CACACA_negctrl_site576],8.77 ± 0.11
17,AAAAAAATAATATAAATAATGAAAAGATATAAATAA [GTGCAC_negctrl_site432],8.54 ± 0.35
18,TACATATATAAATATGTACACACATATGTATGATCT [CACACA_site9284],8.51 ± 0.3
19,AATATAAGCAAATACACACACACATATAAATATGTA [CACACA_site7741],8.36 ± 0.46
20,TTATTATATAAAGTTTCACACATTATTTGTTCAAAC [CACACA_site5218],8.3 ± 0.4
21,ATATGAAGTATCGAATTAAGGGCAACAAATAAATTA [CACACA_negctrl_site1116],8.68 ± 0.52
22,ATTGAGAGAAAAAAATGTACTTGATCAAAATGGATA [XGTACX_site1649],8.79 ± 0.55
